In all, about 3,200 compounds went through this assay and about 300 (9.4%) showed activity. This is a selection; strong and weak results do not stand in their true shares.
Tested on: A673/TR/shEF
Assay: cell viability (LOESS-normalised, relative to median of negative controls) (log2 ratio); higher = more viable cells (less compound effect), active = hit call of the paper (over 3 MAD below the median)
Conditions: treatment time: 72 h
How it was run: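 Viability of A673/TR/shEF Ewing sarcoma cells was determined by CellTiter-Glo luminescence. The cells, at 1,500 per well in 384-well plates, were grown with or without doxycycline from 24 h before compound addition to switch on EWS-FLI1 shRNA knockdown, then exposed for three days to library compounds at two or more concentrations or to DMSO controls. Signals were LOESS-corrected plate by plate, normalised to the negative-control median and log2-transformed.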

[1] = 0.25 µM, library screen: screen1, EWS-FLI1 expression: high (no doxycycline)
[2] = 0.25 µM, library screen: screen1, EWS-FLI1 expression: low (doxycycline-induced shRNA knockdown)
[3] = 2.5 µM, library screen: screen1, EWS-FLI1 expression: high (no doxycycline)
[4] = 2.5 µM, library screen: screen1, EWS-FLI1 expression: low (doxycycline-induced shRNA knockdown)
[5] = 0.103 µM, library screen: screen3, EWS-FLI1 expression: high (no doxycycline)
[6] = 0.103 µM, library screen: screen3, EWS-FLI1 expression: low (doxycycline-induced shRNA knockdown)
[7] = 0.308 µM, library screen: screen3, EWS-FLI1 expression: high (no doxycycline)
[8] = 0.308 µM, library screen: screen3, EWS-FLI1 expression: low (doxycycline-induced shRNA knockdown)
[9] = 0.926 µM, library screen: screen3, EWS-FLI1 expression: high (no doxycycline)
[10] = 0.926 µM, library screen: screen3, EWS-FLI1 expression: low (doxycycline-induced shRNA knockdown)
[11] = 2.8 µM, library screen: screen3, EWS-FLI1 expression: high (no doxycycline)
[12] = 2.8 µM, library screen: screen3, EWS-FLI1 expression: low (doxycycline-induced shRNA knockdown)
[13] = 8.3 µM, library screen: screen3, EWS-FLI1 expression: high (no doxycycline)
[14] = 8.3 µM, library screen: screen3, EWS-FLI1 expression: low (doxycycline-induced shRNA knockdown)
[15] = 25 µM, library screen: screen3, EWS-FLI1 expression: high (no doxycycline)
[16] = 25 µM, library screen: screen3, EWS-FLI1 expression: low (doxycycline-induced shRNA knockdown)
[17] = 0.25 µM, library screen: screen2, EWS-FLI1 expression: high (no doxycycline)
[18] = 0.25 µM, library screen: screen2, EWS-FLI1 expression: low (doxycycline-induced shRNA knockdown)
[19] = 2.5 µM, library screen: screen2, EWS-FLI1 expression: high (no doxycycline)
[20] = 2.5 µM, library screen: screen2, EWS-FLI1 expression: low (doxycycline-induced shRNA knockdown)

Measured: cell viability (log2)

COc1ccc2c3c1O[C@H]1C[C@@H](O)C=C[C@@]31CCN(C)C2
inactive: [1] 0.0942 | [2] -0.0176 | [3] 0.152 | [4] 0.105

CCCC(=O)O[C@]1(C(=O)CO)CC[C@H]2[C@@H]3CCC4=CC(=O)CC[C@]4(C)[C@H]3[C@@H](O)C[C@@]21C
inactive: [1] 0.135 | [2] 0.151 | [3] 0.136 | [4] 0.0219

CC1(C)S[C@@H]2[C@H](NC(=O)COc3ccccc3)C(=O)N2[C@H]1C(=O)O
inactive: [1] 0.149 | [2] 0.119 | [3] 0.17 | [4] 0.197

Cn1cncc1[C@@](N)(c1ccc(Cl)cc1)c1ccc2c(c1)c(-c1cccc(Cl)c1)cc(=O)n2C
inactive: [5] -0.139 | [6] -0.0373 | [8] -0.0603 | [10] -0.0604
active: [7] -0.29 | [9] -0.324 | [11] -0.403 | [12] -0.128 | [13] -0.472 | [14] -0.135 | [15] -0.511 | [16] -0.303

Cc1nnc(SCC2=C(C(=O)O)N3C(=O)[C@@H](NC(=O)Cn4cnnn4)[C@H]3SC2)s1
inactive: [1] 0.136 | [2] 0.127 | [17] 0.117 | [18] 0.106 | [3] 0.19 | [4] 0.189 | [19] 0.0924 | [20] 0.0187

CC(=O)OCC1(O)CC23CCC4c5ccoc5CCC4(C)C2CCC1C3 (stereo unspecified)
inactive: [1] 0.0224 | [2] 0.0746 | [3] 0.0154 | [4] 0.0823

CN1C2CCC1CC(NC(=O)c1nn(C)c3ccccc13)C2 (stereo unspecified)
inactive: [17] 0.132 | [18] 0.139 | [19] 0.11 | [20] 0.144

O=c1[nH]c(=O)n([C@H]2C[C@H](O)[C@@H](CO)O2)cc1C(F)(F)F
inactive: [5] 0.105 | [6] 0.105 | [1] -0.0346 | [2] 0.0988 | [7] 0.134 | [8] 0.147 | [9] 0.108 | [10] 0.0588 | [3] 0.0509 | [4] 0.029 | [11] 0.0746 | [12] 0.0921 | [13] 0.0584 | [14] 0.048 | [16] 0.124
active: [15] -0.362

CN(C)c1nc(N)c(C(=O)N=C(N)N)nc1Cl
inactive: [1] 0.143 | [2] 0.142 | [17] 0.176 | [18] 0.0717 | [3] 0.211 | [4] 0.0791 | [19] 0.0397 | [20] 0.108

C=C(C)C1CC=C(C(=O)O)CC1 (stereo unspecified)
inactive: [1] 0.112 | [2] 0.0449 | [17] 0.18 | [18] 0.164 | [3] 0.0814 | [4] 0.1 | [19] 0.193 | [20] 0.204

c1cc(CN2CCCNCCNCCCNCC2)ccc1CN1CCCNCCNCCCNCC1
inactive: [5] 0.00595 | [6] 0.0496 | [7] 0.0705 | [8] 0.00482 | [9] 0.086 | [10] 0.0433 | [11] 0.0246 | [12] 0.0244 | [13] 0.0572 | [14] 0.0352 | [15] 0.0828 | [16] 0.0617

CN(C)CC[C@@H](c1ccc(Br)cc1)c1ccccn1
inactive: [17] 0.106 | [18] 0.0903 | [19] 0.0852 | [20] 0.0735

C[C@]12CCC3c4ccc(OS(=O)(=O)O)cc4CCC3C1CC[C@H]2O (stereo partly specified)
inactive: [1] 0.0646 | [2] 0.0512 | [3] 0.0988 | [4] 0.092

O=c1[nH]c2cc(Cl)c(Cl)cc2[nH]c1=O
inactive: [1] 0.152 | [2] 0.0361 | [17] 0.108 | [18] 0.0219 | [3] 0.108 | [4] 0.0376 | [19] 0.116 | [20] 0.019

CC(C)[C@@H]1CC[C@@H](C)CC1=O
inactive: [1] 0.057 | [2] 0.0478 | [3] 0.148 | [4] 0.0792

NCCCCN
inactive: [1] 0.145 | [2] 0.0277 | [17] 0.211 | [18] 0.0563 | [3] 0.065 | [4] -0.0367 | [19] 0.309 | [20] 0.0767

CC1=CC2C(CC1=O)C(C)=CCC2C(C)C (stereo unspecified)
inactive: [1] 0.101 | [2] 0.0137 | [3] 0.074 | [4] 0.156

O=C(O)c1cc(NCc2cc(O)ccc2O)ccc1O
active: [3] -0.24 | 25 µM, library screen: screen1, EWS-FLI1 expression: high (no doxycycline) -0.388

CCCCCCCCNC(C)C(O)c1ccc(SC(C)C)cc1 (stereo unspecified)
inactive: [1] 0.0351 | [2] 0.122 | [3] 0.124 | [4] 0.202

C[C@H]1O[C@@H](O[C@H]2[C@@H](O)C[C@H](O[C@H]3[C@@H](O)C[C@H](O[C@H]4CC[C@@]5(C)[C@H](CC[C@@H]6[C@@H]5CC[C@]5(C)[C@@H](C7=CC(=O)OC7)CC[C@]65O)C4)O[C@@H]3C)O[C@@H]2C)C[C@H](O)[C@@H]1O
active: [1] -2.45 | [2] -2.04 | [3] -3.94 | [4] -4.23

COc1cc2c(cc1OC)[C@@H]1C(=O)c3ccc4c(c3O[C@@H]1CO2)C=CC(C)(C)O4
active: [1] -0.591 | [2] -0.253 | [3] -2.11 | [4] -0.84

COc1cc(C2NC(=O)NC(C)=C2C(=O)Nc2cccc(Cl)c2)cc(OC)c1OC (stereo unspecified)
inactive: [1] 0.0796 | [2] 0.0843 | [3] 0.0754 | [4] -0.0585

Cc1cccc(Nc2ccncc2S(=O)(=O)NC(=O)NC(C)C)c1
inactive: [5] 0.0396 | [6] -0.0451 | [7] 0.0502 | [8] 0.0231 | [9] 0.0381 | [10] 0.0245 | [11] 0.0609 | [12] 0.00717 | [13] 0.0545 | [14] 0.0436 | [15] 0.106 | [16] 0.111
